Source: paper PMC6919601, “Identification of Plasmodium dipeptidyl aminopeptidase allosteric inhibitors by high throughput screening” (PLoS ONE, 2019)
Among all 110,000 compounds or so, about 230 (0.21%) showed an effect of 50% or more. This is one part of the list.

target: DPAP1 (Plasmodium falciparum, UniProt Q8IIJ9); experiment: primary screen, percent inhibition; read by cleavage of a fluorogenic dipeptide substrate; higher = more effect of the substance; set-up: species or system P. falciparum D10 trophozoite lysates; single well
Sequence (Q8IIJ9 whole entry, looked up): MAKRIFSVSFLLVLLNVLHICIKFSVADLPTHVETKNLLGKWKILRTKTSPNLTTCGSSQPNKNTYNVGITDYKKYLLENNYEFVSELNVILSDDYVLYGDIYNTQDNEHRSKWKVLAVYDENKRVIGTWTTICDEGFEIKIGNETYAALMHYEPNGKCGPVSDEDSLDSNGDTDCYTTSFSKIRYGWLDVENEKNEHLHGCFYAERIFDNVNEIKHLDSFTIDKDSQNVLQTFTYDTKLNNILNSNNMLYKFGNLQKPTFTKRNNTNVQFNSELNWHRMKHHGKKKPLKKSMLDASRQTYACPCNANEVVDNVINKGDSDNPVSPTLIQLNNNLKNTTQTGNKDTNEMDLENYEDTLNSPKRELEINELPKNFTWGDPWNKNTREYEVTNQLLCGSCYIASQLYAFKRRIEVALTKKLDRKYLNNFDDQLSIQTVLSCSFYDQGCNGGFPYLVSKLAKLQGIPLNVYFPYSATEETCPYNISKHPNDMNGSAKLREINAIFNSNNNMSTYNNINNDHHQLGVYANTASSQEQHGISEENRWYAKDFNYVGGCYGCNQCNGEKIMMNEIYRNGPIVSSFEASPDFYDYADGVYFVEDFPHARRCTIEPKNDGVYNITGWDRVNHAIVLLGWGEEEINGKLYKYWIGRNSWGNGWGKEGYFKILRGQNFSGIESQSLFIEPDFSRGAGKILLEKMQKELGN
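Note: 30 min substrate incubation versus DMSO and 10 µM JCP410 controls.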

SMILES | % Inhibition @ 10 uM
Cn1cc(C2C(=O)NC(c3ccccc3)=NN2C(=O)c2ccccc2)c2ccccc21 (stereo not drawn) | 1.15%
O=C(Cn1ncc2c(=O)oc3ccccc3c21)N1CCCN(Cc2ccccc2F)C1 | -2.38%
O=C1CC(C(=O)NCC2OCCc3ccccc32)C2(CCCCC2)O1 (stereo not drawn) | -2.14%
CC(C)(C)NCC(O)COc1ccc2ccccc2c1 (stereo not drawn) | -0.424%
C=CCOc1ccccc1CN1CCCCC1C(=O)OCC (stereo not drawn) | -4.75%
Cc1ccc(-n2nnc3c(=O)n(CC(=O)NCC4CCCO4)cnc32)cc1 (stereo not drawn) | 1.24%
CCOC(=O)C1=C(N)N2C(=O)C(C)SC2=C(C(=O)OC)C1c1ccccc1OC (stereo not drawn) | -0.703%
C1=CC2CC1CC2CN1CCN(c2ccccc2)CC1 (stereo not drawn) | 3.24%
Cc1ccc(S(=O)(=O)/N=C(\NCC(=O)O)c2ccccc2)cc1 | 1.25%
N#CC1=C(N)SC(N)=C(C#N)C1c1cccc2ccccc12 | 47%
Cc1cccc(NC(=O)c2cccc(S(=O)(=O)Nc3ccccc3C(=O)O)c2)c1 | 6.31%
CCN1C(=O)N/C(=C/c2cc(C)n(-c3ccc(C)cn3)c2C)C1=O | -10.1%
Cc1nn(CCCC(=O)NCCc2ccc(Cl)cc2)c(=O)c2cc3sccc3n12 | 1.8%
COC(=O)c1nnn(-c2ccccc2F)c1N | -0.92%
OCCOCCN1CCN(CC2CCCCC2)CC1 | -0.292%
Cc1ccc(N(CC(=O)N2CCCC2)S(C)(=O)=O)cc1 | -3.39%
Cc1ccc(C)c(S(=O)(=O)NC(C)C(=O)Nc2ccc(F)c(Cl)c2)c1 (stereo not drawn) | -2.76%
COc1ccc(-c2cc(C(=O)NCCCn3ccnc3)no2)cc1 | -4.07%
O=C(O)c1cccc(NC(=O)c2cc([N+](=O)[O-])cc([N+](=O)[O-])c2)c1 | -0.0404%
N#CC1=C(N)Oc2cc(N)ccc2C1c1ccc2ccccc2c1 (stereo not drawn) | -1.38%
c1ccc2sc(-c3ccc4c(c3)OCO4)nc2c1 | -0.546%

SMILES | % Inhibition @ 10 uM
C=CCN1C(=O)S/C(=C/c2ccc(-c3ccc(C(C)=O)cc3)o2)C1=O | -4.62%
CCN1CCC2(CC1)N=C(c1ccc(F)cc1)C(=S)N2 | -2.67%
CC1=C(c2ccc(Cl)cc2)NN=C(/N=C/c2ccco2)S1 | -2.41%
COc1ccc(S(=O)(=O)N(C)CC(=O)Nc2ccc(F)cc2)cc1 | -2.6%
O=C(NCCc1ccc(Cl)cc1)c1cc(S(=O)(=O)N2CCCCC2)ccc1F | 3.04%
C=CCn1c(=N)n(CC(O)c2ccc(Br)cc2)c2ccccc21 (stereo not drawn) | -8.73%
COc1cccc2oc(-c3ccccc3)c(Br)c12 | -11.3%
Cc1ccc(-c2ccc(=O)n(Cc3c(F)cccc3Cl)n2)cc1 | -0.946%
CC(=O)c1ccc(N2CN=C3SCC(=O)N3C2)cc1 | 2.08%
Oc1nc(Cn2c(-c3cncs3)nc3ccccc32)nc2ccccc12 | 2.25%
Cc1cccn2c(=O)c(/C=C(\C#N)C(=O)NCC3CCCO3)c(Oc3ccc(C(C)(C)C)cc3)nc12 (stereo not drawn) | 0.315%
COC(=O)c1cc2sc(Cl)cc2n1Cc1nc(-c2ccc(OC)c(OC)c2)oc1C | -1.2%
CCC[C@H](NC(=O)C1(NC(=O)c2ccc(OC)c(OC)c2)CCCCC1)C(=O)c1nc2ccccc2o1 | -1.41%
CC(C)COc1ccc(/C=C2/NC(=O)N(Cc3ccccc3F)C2=O)cc1 | -5.57%
CCc1ccc(OCC(=O)N2CCN(Cc3ccc4c(c3)OCO4)CC2)c(Br)c1 | -1.16%
ON=C1CCN(Cc2ccccc2)CC1 | 2.62%
COCCn1c(=N)c(C(=O)NC2CCCCC2)cc2c(=O)n3cc(C)ccc3nc21 | 1.97%
O=C(Nc1ccccc1[N+](=O)[O-])C1CC1(c1ccccc1)c1ccccc1 (stereo not drawn) | 4.8%
Clc1ccc(-c2csc(N3N=C(c4ccccc4)CC3c3ccccc3)n2)cc1 (stereo not drawn) | -4.08%
COc1ccc(N(CC(=O)Nc2ccc(C)cc2C)S(=O)(=O)c2ccccc2)cc1 | 0.324%
COc1ccc(CC/N=C2/C=C(O)CC(C)(C)C2)cc1OC | -9.75%

SMILES | % Inhibition @ 10 uM
O=c1[nH]c(/C=C/c2ccccc2O)c([N+](=O)[O-])c(=O)[nH]1 | 3.83%
CCOCCCNC(=O)C1CCCN(C(=O)c2cc3sccc3n2CC)C1 (stereo not drawn) | -8.38%
Cc1ccc(N2CCN(S(=O)(=O)N(C)C)CC2)c(C)c1 | -6.62%
Cc1nn(CC(=O)N2CCC3(CC2)OCCO3)c(=O)c2cc3sccc3n12 | 6.46%
Cc1ccc(OCC(=O)Nc2cccc3c2CCCC3)c(Br)c1 | 5.35%
CCCCCCOc1ccc(CN2CCc3ccccc3C2)cc1 | 0.472%
Cc1nn(CCC(=O)NCC(C)c2ccccc2)c(=O)c2nn(-c3ccccc3)c(C)c12 (stereo not drawn) | 1.8%
Cc1sc(NC(=O)C(Sc2ccccc2)c2ccccc2)c(C(N)=O)c1C (stereo not drawn) | 2.01%
Cc1noc2ncnc(N3CCN(Cc4ccc5c(c4)OCO5)CC3)c12 | -6.14%
c1csc(C[n+]2ccc3ccccc3c2)c1 | -0.318%
Cc1sc2ncnc(N3CCOCC3)c2c1C | 13.5%
O=C(NCc1nnc(SCc2cccnc2)o1)c1ccccc1F | -7.21%
CC(C)(C)c1coc2cc3oc(=O)c4c(c3cc12)CCC4 | -2.57%
CCSc1nc(O)c2c(n1)N=C(C)/C(=C(\O)OC)C2c1ccc(C(=O)OC)cc1 (stereo not drawn) | 1.16%
O=C1CCCN1c1ccc(S(=O)(=O)N2CCCCC2)cc1[N+](=O)[O-] | -2.72%
O=C(CN1C(=O)S/C(=C\c2ccc(-c3ccccc3)o2)C1=O)N1CCCC1 | 3.26%
CCc1cccc(C)c1-n1cccc1/C=C1/C(=N)N2C=CSC2=NC1=O | 6.63%
COc1ccccc1NC(=O)C1C2C3CCC(C3)C12 (stereo not drawn) | -4.97%
Cc1ccc(C(C)C)c(Oc2ccc(C(=O)O)cc2)c1 | -3.27%
CC(C)(C)c1ccc(OCCCn2ccnc2)cc1 | -5.84%
CCc1ccc(C2c3c(-c4ccccc4O)n[nH]c3C(=O)N2CCCOC(C)C)cc1 (stereo not drawn) | 5.17%
